Measured values from PubChem BioAssay AID2546 (National Center for Advancing Translational Sciences (NCATS), 2010).
Out of some 310,000 compounds screened, about 11,000 (3.5%) were called active. This list was built around the results that the source calls inconclusive (neither active nor inactive); the mix of calls is not that of the screen. Calls follow the shape of the dose curve; as a rule, active = well fitted inhibition curve with a large enough effect; inconclusive = small, poorly fitted or top-dose-only effect, or effect the other way; inactive = flat fitted curve, though single readings scatter. Potencies of inconclusive entries are left out as doubtful fits.
% is scaled to controls: 0 for no effect and ±100 for the full control effect; potency is read from the fitted curve at half-maximal effect; tags tell the direction and shape of the fitted curve.

Assay: VP16 counterscreen qHTS for inhibitors of ROR gamma transcriptional activity;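 also: Gal4-VP16 expression switched on by copper sulfate through the metallothionein promoter; nearly all actives have a fitted effect of over 50% in size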
Settings: Drosophila S2 Gal4-VP16 UAS-luciferase, luminescence, 20 h; activity, negative = inhibition: at 53.6 µM (top of the series)
Description: NIH Molecular Libraries Probe Production Network [MLPCN]
NIH Chemical Genomics Center [NCGC]
Assay Provider: Dan Littman, New York University
The retinoic acid-related orphan receptor (ROR) gamma is a transcription factor that has a central role in the differentiation of Th17 cells, a subset of T helper cells that secrete the inflammatory cytokines IL-17, IL-17F, and IL-22. Th17 cells have been implicated in graft versus host disease, autoimmune disease and asthma. ROR gamma is induced in naive T helper cells in the presence of TGF-beta combined with IL-6, IL-21, or IL-23, and thereafter directs the expression of the Th17 lineage cytokines. To identify nonspecific inhibitors, a Drosophila Schneider cell line was stably transfected with two vectors: a gene expressing a fusion of the Gal4 DNA binding domain and VP16 transactivation domain under the control of the metallothionine promoter and a Photinus luciferase reporter regulated by the Gal4 binding site enhancer, UAS. […] Small molecule inhibitors that inhibit components common to the RORgt and VP16 assays, such as the Gal4 DNA binding domain or the UAS luciferase reporter, will be active in both assays and thus scored as nonspecific.
For screening, 600 cells in 4 uL/well were dispensed into white solid 1536-well plates (Grenier) using a solenoid-based dispenser. Following transfer of 23 nL compound or DMSO vehicle by a pin tool, the plates were incubated 1 hr at ambient temperature, and 1 uL/well copper sulfate (700 uM final concentration) was added. The plates were centrifuged 15 s at 1000 RPM and incubated 20 hr at ambient temperature. After addition of 1.5 uL Photinus luciferase detection reagent, the plates were incubated 10 min at ambient temperature and then read by a ViewLux (Perkin Elmer) to detect luminescence.
With `CCOc1ccc(/C=N/NC(=O)c2ccccc2NC(=O)c2ccc(OC)cc2)cc1` the Potency was active: 7.08 µM.
In the case of `O=C(CSc1nnc(NC(=O)c2ccc3c(c2)OCO3)s1)NCc1ccco1`, the Potency is reported as inconclusive [inhibitor, partial curve].
In the case of `c1ccc(-c2onc3c2CCCC3)cc1`, the Potency is reported as inconclusive [inhibitor, single point].
In the case of `Cc1cc(C)c(NC(=S)NC(NC(=O)c2ccccc2)C(Cl)(Cl)Cl)c(C)c1` (configuration not stated), the Potency is reported as inconclusive [inhibitor, single point].
With `CCOC(=O)C1=C(c2ccccc2)NC(=S)NC1c1cc([N+](=O)[O-])ccc1OC` (configuration not stated) the Potency was inconclusive [inhibitor, single point].
In the case of `Cc1sc(NC(=O)Nc2ccccc2)c(C(N)=O)c1C`, the Potency is reported as inconclusive [activator, full curve, poor fit].
For `COc1ccc2nc(NC(=O)c3ccc([N+](=O)[O-])o3)sc2c1`, the Potency was active: 11.2 µM.
With `CSCC[C@H](NC(=O)C(C)Oc1ccc(Cl)cc1)c1nc2ccccc2[nH]1` (some centres not stated) the “activity, negative = inhibition” value was inactive: -6.26%.
In the case of `CC(=O)N1CCN(C(=O)CC2OC(=O)c3ccccc32)CC1` (configuration not stated), the Potency is reported as inconclusive [inhibitor, single point].
With `COc1ccc(N2CCN(CCCNC(=O)C(=O)c3c(C)n(C)c4ccccc34)CC2)cc1` the “activity, negative = inhibition” value was inactive: -3.63%.
In the case of `Cn1c(=O)c2nc3ccccc3nc2n(C)c1=O`, the “activity, negative = inhibition” value is reported as inactive: -4.88%.
In the case of `CCOc1ccc(-c2[nH]ncc2Oc2ccccc2OCC)c(O)c1`, the Potency is reported as inconclusive [inhibitor, single point].
With `Cc1ccsc1/C=N/NC(=O)c1ccc(Cn2cc(Br)cn2)o1` the Potency was inconclusive [inhibitor, single point].
With `Cc1ccc(CNC(=O)/C=C/c2cccs2)cc1` the “activity, negative = inhibition” value was inactive: 12.4%.
In the case of `Cc1cccc(N2C(=O)CCC2=O)n1`, the Potency is reported as inconclusive [activator, single point].
In the case of `CC1CC=CC2C1C(=O)N(Cc1ccccc1)C2c1ccc2ccccc2c1` (configuration not stated), the “activity, negative = inhibition” value is reported as inactive: 0.39%.
With `COc1ccc(CN2C(=O)CCC2(C)C(=O)NC2CCCCC2)c(OC)c1` (configuration not stated) the “activity, negative = inhibition” value was inactive: -13.1%.
With `CCOC(=O)C1(Cc2ccc(Cl)cc2)CCN(Cc2nccn2CC)CC1` the Potency was active: 12.6 µM.
With `Oc1c(CN2CCCCC2)cc(COCc2ccccc2)c2cccnc12` the Potency was active: 0.0089 µM.
For `O=C(/C=C/c1cccc([N+](=O)[O-])c1)NCCN1C(=O)S/C(=C\c2ccc(F)cc2)C1=O`, the Potency was inconclusive [inhibitor, full curve, poor fit].
For `Cn1c(/C=C/c2ccc(Cl)cc2Cl)c([N+](=O)[O-])c(=O)n(C)c1=O`, the Potency was inconclusive [inhibitor, single point].
With `Cc1cnc(NC(=O)CSc2nc3ccccc3s2)s1` the Potency was inconclusive [inhibitor, single point].
For `CN1CCN(C2=Nc3cc(F)ccc3Cc3ccccc32)CC1`, the Potency was “inactive”.
In the case of `CC1(C)Cc2c(sc(NC(=O)C(C)(C)C)c2C#N)C(C)(C)N1`, the “activity, negative = inhibition” value is reported as inactive: 9.41%.
With `S=C(NCCc1ccccc1)Nc1ccc(Cl)cc1` the Potency was inconclusive [inhibitor, single point].
In the case of `O=C1CC(c2ccccc2)n2nc(NC(=O)c3ccccc3)nc2N1` (configuration not stated), the Potency is reported as inconclusive [inhibitor, partial curve, poor fit].
For `COc1cccc(C(C)NC(=S)NCc2ccc(Cl)cc2)c1` (configuration not stated), the Potency was inconclusive [inhibitor, single point].
With `Cc1c(OC(C)C(=O)NCc2ccncc2)ccc2c3c(c(=O)oc12)CCCC3` (configuration not stated) the Potency was inconclusive [inhibitor, single point].
For `CN(C)CCNC(=O)/C(=C/c1ccc(-c2ccc(Cl)cc2Cl)o1)NC(=O)c1ccccc1`, the Potency was inconclusive [inhibitor, single point].
In the case of `c1ccc(Oc2nc(-c3ccccn3)nc3ccccc23)cc1`, the Potency is reported as active: 3.16 µM.
For `CCOC(=O)CSc1cccc2cccnc12`, the Potency was active: 10 µM.
With `Cc1ccccc1NC(=S)NC1CCCC1` the Potency was active: 8.91 µM.
In the case of `Cc1cc(-c2cccs2)nc(-n2cccc2)n1`, the Potency is reported as inconclusive [inhibitor, single point].
With `CCCCC(=O)Nc1nnnn1CCC` the Potency was inconclusive [inhibitor, single point].
In the case of `O=C(CCc1ccc(S(=O)(=O)NCCc2ccccc2)cc1)N1CCN(Cc2ccc3c(c2)OCO3)CC1`, the Potency is reported as inconclusive [inhibitor, single point].
With `O=Cc1sc(=O)n(Cc2cccc(C(=O)O)c2)c1Cl` the Potency was inconclusive [inhibitor, single point].
For `C/C=C(/C)C(=O)OC1Cc2c(ccc3ccc(=O)oc23)OC1(C)C` (configuration not stated), the Potency was inconclusive [inhibitor, single point].
For `CCn1nc(C)c(/C=N/NC(=O)Cn2cncn2)c1C`, the Potency was inconclusive [inhibitor, single point].
With `CCCNC(=O)c1nn2c(C(F)(F)F)cc(-c3ccccc3)nc2c1Cl` the “activity, negative = inhibition” value was inactive: -2.07%.
With `CCCCNC(=O)N(O)C1N(/N=C/c2ccccc2O)C(=S)SC1(C)C` (configuration not stated) the Potency was inconclusive [inhibitor, single point].
With `CCCCOC(=O)c1ccc(NC(=O)c2c(Cl)ccc(Cl)c2OC)cc1` the Potency was inconclusive [activator, single point].
In the case of `O=C(NNC(=O)c1ccccc1Br)c1ccc2nc[nH]c2c1`, the “activity, negative = inhibition” value is reported as inactive: -14.3%.
For `Cc1ccc(C(=O)Oc2cccc(NC(=O)c3ccccc3)c2)cc1C`, the “activity, negative = inhibition” value was inactive: 1.71%.
For `O=C(NC(Nc1nc2ccc([N+](=O)[O-])cc2s1)(C(F)(F)F)C(F)(F)F)c1ccccc1`, the Potency was active: 2.82 µM.
With `Nc1c(-c2ccccc2)c(CSc2nc3ccccc3[nH]2)nn1-c1cccc(Cl)c1` the Potency was inconclusive [inhibitor, partial curve].
With `O/N=C(\c1ccc(Cl)cc1)c1cc2ccccc2o1` the Potency was inconclusive [inhibitor, single point].
For `COCCn1c(=NC(=O)c2sc3ccccc3c2Cl)sc2cc(S(N)(=O)=O)ccc21`, the Potency was inconclusive [inhibitor, single point].
